The supplement of paper PMC10369915
This is one part of the list. Rule as the data show it: active = 3.2 or more and inactive = the rest. Most of these values are background signal.

target: SHP2 C-SH2 domain E139D; assay: enrichment score (SH2-bound / input frequency) (ratio); bacterial display of known human phosphotyrosine sites (pTyr-Var adds point mutants) read by sequencing; higher = stronger binding; tyrosines were phosphorylated by kinases first; settings: peptide library: pTyr-Var
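Also: displayed peptides selected on beads carrying the immobilized SH2 domain, with library peptides lacking any tyrosine serving as negative controls.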

Enrichment score, inactive:
DAVKHYMQFRK [CNGA2_Y395] 0.544
LSSNLYYRWLT [CNGA3_Y168_P163L] 2.65
PSSNLYYRCLT [CNGA3_Y168_W171C] 0.597
SSNLYYRCLTA [CNGA3_Y169_W171C] 0.675
SSNLFYRCLTA [CNGA3_Y169_W171C_YF] 0.644
MPLTEYLKQIK [CNGB3_Y200_R203Q] 0.744
QNRELYSEGLG [CNKSR1_Y665] 0.612
QNWELYSEGLG [CNKSR1_Y665_R662W] 0.844
DESEDYRDTVV [CNNM3_Y456] 0.448
TFEFRYLEDQD [CNOT3_Y746_R750Q_YF] 0.687
ETGNLYIAKVE [CNTN4_Y180] 0.775
GQLIFYAPPEW [CNTN6_Y315] 1.44
VTPVMYTFDEF [COL10A1_Y623_G618V_YF] 1.18
GTPVMYTFDEF [COL10A1_Y623_YF] 0.972
PGPPGYCDSSQ [COL12A1_Y3043] 0.646
PGPPGYCDSSH [COL12A1_Y3043_Q3048H] 0.789
KGERGYPGTPG [COL4A1_Y348] 0.703
PGLRGYPGLSG [COL4A2_Y306] 1.02
PGLKGYPGLSG [COL4A2_Y306_R304K] 0.887

target: SHP2 C-SH2 domain wild-type; assay: as above; settings: peptide library: pTyr-Var

Enrichment score, inactive:
DAVKHYMQFRK [CNGA2_Y395] 0.802
LSSNLYYRWLT [CNGA3_Y168_P163L] 2.56
PSSNLYYRCLT [CNGA3_Y168_W171C] 0.679
SSNLYYRCLTA [CNGA3_Y169_W171C] 0.985
SSNLFYRCLTA [CNGA3_Y169_W171C_YF] 0.93
MPLTEYLKQIK [CNGB3_Y200_R203Q] 0.773
QNRELYSEGLG [CNKSR1_Y665] 0.511
QNWELYSEGLG [CNKSR1_Y665_R662W] 0.82
DESEDYRDTVV [CNNM3_Y456] 0.565
TFEFRYLEDQD [CNOT3_Y746_R750Q_YF] 0.724
ETGNLYIAKVE [CNTN4_Y180] 0.95
GQLIFYAPPEW [CNTN6_Y315] 1.18
VTPVMYTFDEF [COL10A1_Y623_G618V_YF] 0.948
GTPVMYTFDEF [COL10A1_Y623_YF] 1.12
PGPPGYCDSSQ [COL12A1_Y3043] 0.672
PGPPGYCDSSH [COL12A1_Y3043_Q3048H] 0.803
KGERGYPGTPG [COL4A1_Y348] 0.615
PGLRGYPGLSG [COL4A2_Y306] 0.876
PGLKGYPGLSG [COL4A2_Y306_R304K] 0.837

target: SHP2 N-SH2 domain L43F; assay: as above; settings: peptide library: pTyr-Var

Enrichment score, inactive:
DAVKHYMQFRK [CNGA2_Y395] 0.865
LSSNLYYRWLT [CNGA3_Y168_P163L] 2.44
PSSNLYYRCLT [CNGA3_Y168_W171C] 0.662
SSNLYYRCLTA [CNGA3_Y169_W171C] 0.654
SSNLFYRCLTA [CNGA3_Y169_W171C_YF] 0.867
MPLTEYLKQIK [CNGB3_Y200_R203Q] 0.742
QNRELYSEGLG [CNKSR1_Y665] 0.825
QNWELYSEGLG [CNKSR1_Y665_R662W] 0.931
DESEDYRDTVV [CNNM3_Y456] 0.48
TFEFRYLEDQD [CNOT3_Y746_R750Q_YF] 0.752
ETGNLYIAKVE [CNTN4_Y180] 0.846
GQLIFYAPPEW [CNTN6_Y315] 1.74
VTPVMYTFDEF [COL10A1_Y623_G618V_YF] 1.81
GTPVMYTFDEF [COL10A1_Y623_YF] 0.865
PGPPGYCDSSQ [COL12A1_Y3043] 0.58
PGPPGYCDSSH [COL12A1_Y3043_Q3048H] 0.645
KGERGYPGTPG [COL4A1_Y348] 0.551
PGLRGYPGLSG [COL4A2_Y306] 1.12
PGLKGYPGLSG [COL4A2_Y306_R304K] 0.975

target: SHP2 N-SH2 domain T42A; assay: as above; settings: peptide library: pTyr-Var

Enrichment score, inactive:
DAVKHYMQFRK [CNGA2_Y395] 0.524
LSSNLYYRWLT [CNGA3_Y168_P163L] 1.58
PSSNLYYRCLT [CNGA3_Y168_W171C] 0.666
SSNLYYRCLTA [CNGA3_Y169_W171C] 0.74
SSNLFYRCLTA [CNGA3_Y169_W171C_YF] 1.36
MPLTEYLKQIK [CNGB3_Y200_R203Q] 0.771
QNRELYSEGLG [CNKSR1_Y665] 0.611
QNWELYSEGLG [CNKSR1_Y665_R662W] 0.79
DESEDYRDTVV [CNNM3_Y456] 0.457
TFEFRYLEDQD [CNOT3_Y746_R750Q_YF] 0.7
ETGNLYIAKVE [CNTN4_Y180] 0.647
GQLIFYAPPEW [CNTN6_Y315] 2.9
VTPVMYTFDEF [COL10A1_Y623_G618V_YF] 0.866
GTPVMYTFDEF [COL10A1_Y623_YF] 0.892
PGPPGYCDSSQ [COL12A1_Y3043] 0.597
PGPPGYCDSSH [COL12A1_Y3043_Q3048H] 0.738
KGERGYPGTPG [COL4A1_Y348] 0.542
PGLRGYPGLSG [COL4A2_Y306] 0.854
PGLKGYPGLSG [COL4A2_Y306_R304K] 0.857

target: SHP2 N-SH2 domain T52S; assay: as above; settings: peptide library: pTyr-Var

Enrichment score, inactive:
DAVKHYMQFRK [CNGA2_Y395] 0.63
LSSNLYYRWLT [CNGA3_Y168_P163L] 2.33
PSSNLYYRCLT [CNGA3_Y168_W171C] 0.578
SSNLYYRCLTA [CNGA3_Y169_W171C] 0.779
SSNLFYRCLTA [CNGA3_Y169_W171C_YF] 0.745
MPLTEYLKQIK [CNGB3_Y200_R203Q] 0.967
QNRELYSEGLG [CNKSR1_Y665] 0.467
QNWELYSEGLG [CNKSR1_Y665_R662W] 0.982
DESEDYRDTVV [CNNM3_Y456] 0.433
TFEFRYLEDQD [CNOT3_Y746_R750Q_YF] 0.604
ETGNLYIAKVE [CNTN4_Y180] 0.801
GQLIFYAPPEW [CNTN6_Y315] 1.72
VTPVMYTFDEF [COL10A1_Y623_G618V_YF] 2.25
GTPVMYTFDEF [COL10A1_Y623_YF] 1.09
PGPPGYCDSSQ [COL12A1_Y3043] 0.672
PGPPGYCDSSH [COL12A1_Y3043_Q3048H] 0.841
KGERGYPGTPG [COL4A1_Y348] 0.618
PGLRGYPGLSG [COL4A2_Y306] 0.828
PGLKGYPGLSG [COL4A2_Y306_R304K] 1.16

target: SHP2 N-SH2 domain wild-type; assay: as above; settings: peptide library: pTyr-Var

Enrichment score, inactive:
DAVKHYMQFRK [CNGA2_Y395] 0.683
LSSNLYYRWLT [CNGA3_Y168_P163L] 1.63
PSSNLYYRCLT [CNGA3_Y168_W171C] 0.671
SSNLYYRCLTA [CNGA3_Y169_W171C] 1.09
SSNLFYRCLTA [CNGA3_Y169_W171C_YF] 1.26
MPLTEYLKQIK [CNGB3_Y200_R203Q] 0.902
QNRELYSEGLG [CNKSR1_Y665] 0.617
QNWELYSEGLG [CNKSR1_Y665_R662W] 0.963
DESEDYRDTVV [CNNM3_Y456] 0.843
TFEFRYLEDQD [CNOT3_Y746_R750Q_YF] 0.711
ETGNLYIAKVE [CNTN4_Y180] 0.933
GQLIFYAPPEW [CNTN6_Y315] 1.33
VTPVMYTFDEF [COL10A1_Y623_G618V_YF] 1.17
GTPVMYTFDEF [COL10A1_Y623_YF] 1.29
PGPPGYCDSSQ [COL12A1_Y3043] 1.59
PGPPGYCDSSH [COL12A1_Y3043_Q3048H] 0.841
KGERGYPGTPG [COL4A1_Y348] 0.606
PGLRGYPGLSG [COL4A2_Y306] 1.16
PGLKGYPGLSG [COL4A2_Y306_R304K] 1.16
